Out of some 420,000 compounds screened, about 50,000 (12%) were called active. The shares of active, inactive and inconclusive entries below differ from those in the screen. Calls come from the whole dose curve; as a rule, active = well fitted inhibition curve with a large enough effect; inconclusive = small, poorly fitted or top-dose-only effect; inactive = flat fitted curve, though single readings scatter. No potency is given beside an inconclusive call; the fits are too rough.
Assay: qHTS for Inhibitors of human tyrosyl-DNA phosphodiesterase 1 (TDP1): qHTS in cells in presence of CPT; note: nearly all actives have a fitted effect of over 55% in size
Conditions: chicken DT40 Tdp1-/-;hTDP1 cells + 20 nM CPT, ATP luminescence, 48 h; activity change, negative = growth inhibition: at 46.2 µM (top of the series) unless noted
Procedure, shortened: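 Chicken DT40 Tdp1-/- cells stably complemented with human TDP1 were seeded at 400 cells/well in medium containing 20 nM camptothecin, exposed to pin-transferred compounds, and grown at 37 °C for at least 48 hr. Viability was read as ATP luminescence.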
% is set by controls: 0 for no effect and ±100 for the full control effect; potency is the fitted concentration of half-maximal effect; tags give direction and shape of the fitted curve.

Q: With `CNC[C@@H]1OCc2ccccc2-c2c(n(C)c3ccccc23)C(=O)N([C@H](C)CO)C[C@H]1C` as the compound, how does the Potency read?
A: The Potency was inconclusive [inhibitor, single point].

Q: With `Cc1ccc(S(=O)(=O)NC(=O)C2(C)CCN2C(=O)c2ccccc2)cc1` (stereo not given) as the compound, how does the “activity change, negative = growth inhibition” value read?
A: The value was inactive: 0.201%.

Q: With `CCOc1ccc(-n2c(SC(C)C(=O)OC)nc3c([nH]c4ccccc43)c2=O)cc1` (stereo not given) as the compound, how does the Potency read?
A: Its Potency is inconclusive [inhibitor, partial curve].

Q: Which Potency does the source give for `CCN1CCN(c2cc(N3CCN(C(=O)c4ccco4)CC3)c3c4c(onc24)-c2ccccc2C3=O)CC1` here?
A: Its Potency is active: 7.31 µM.

Q: Which “activity change, negative = growth inhibition” value does the source give for `Cn1nc(-c2ccc(Cl)cc2)cc1NC(=O)Nc1ccccc1` here?
A: The value was inactive: -23.6%.

Q: Which Potency does the source give for `O=C(NCCC1=CCCCC1)C1CCN(S(=O)(=O)c2ccccc2C(F)(F)F)CC1` here?
A: Its Potency is inconclusive [inhibitor, single point].

Q: For `Cc1ccc(C)c(NC(=O)Cn2c(=O)oc3cc(S(=O)(=O)NCc4ccccc4)ccc32)c1`, which Potency is on record?
A: Its Potency is active: 13 µM.

Q: With `Cc1cccc(-c2noc(-c3csc([C@@H]4C[C@H](O)[C@@H](CO)O4)n3)n2)c1` as the compound, how does the Potency read?
A: The Potency was inconclusive [inhibitor, single point].

Q: For `COc1ccc(Cl)cc1NC(=O)c1nc(S(C)(=O)=O)ncc1N(Cc1ccc(C)cc1)Cc1ccco1`, which Potency is on record?
A: Its Potency is active: 8.2 µM.

Q: Which “activity change, negative = growth inhibition” value does the source give for `COCCCNc1nc2nonc2nc1N1CCC(C(C)N2CCOCC2)CC1` (stereo not given) here?
A: Its value is inactive: -0.0214%.

Q: For `CC1CN(S(=O)(=O)c2ccc(NC(=O)CCCN3C(=O)c4ccccc4C3=O)cc2)CC(C)O1` (stereo not given), which Potency is on record?
A: Its Potency is inconclusive [inhibitor, partial curve, poor fit].

Q: With `CC(C)C[C@@H]1CC2=C(C(=O)OC(C)(C)O2)[C@H](CCc2ccccc2)O1` as the compound, how does the Potency read?
A: The Potency was inconclusive [inhibitor, single point].

Q: For `COc1ccc2cc(S(=O)(=O)NCc3cccnc3)ccc2c1`, which Potency is on record?
A: The Potency was inconclusive [inhibitor, partial curve].

Q: With `NC[C@H](O)c1ccc(O)c(O)c1` as the compound, how does the Potency read?
A: Its Potency is inconclusive [inhibitor, single point].

Q: With `O=C(NN=C1c2ccccc2-c2ccccc21)c1ccccn1` as the compound, how does the Potency read?
A: Its Potency is inconclusive [inhibitor, single point].

Q: For `O=S(=O)(O)c1cc(O)c(N=Nc2ccc(O)cc2O)c2ccccc12`, which Potency is on record?
A: The Potency was inconclusive [inhibitor, partial curve, poor fit].

Q: For `COc1ccccc1NS(=O)(=O)c1cc(N)ccc1N1CCCC1`, which Potency is on record?
A: The Potency was inconclusive [inhibitor, single point].

Q: For `CCCCOc1ccc(C(=O)NCCN2CCC(n3c(=O)[nH]c4ccccc43)CC2)cc1`, which Potency is on record?
A: The Potency was inconclusive [inhibitor, single point].

Q: Which Potency does the source give for `Cc1ccc(-c2csc(NC(=O)C[n+]3cc(-c4ccccc4)n4c3CCC4)n2)cc1` here?
A: Its Potency is active: 20.6 µM.

Q: For `Cc1cccc(N2CCN(C(=S)Nc3ccc4nc(N5CCOCC5)cc(C)c4c3)CC2C)c1` (stereo not given), which “activity change, negative = growth inhibition” value is on record?
A: Its value is inactive: -8.68%.

Q: Which Potency does the source give for `Fc1ccc(-c2nnc(CN3CCC(c4nc5ccccc5s4)CC3)o2)cc1` here?
A: Its Potency is inconclusive [inhibitor, single point].

Q: Which Potency does the source give for `COc1ccc(-c2oc3ccc(-c4ccc(OC)nc4)cc3c2-c2ccc(OC)cc2)cc1` here?
A: Its Potency is inconclusive [inhibitor, partial curve].

Q: Which Potency does the source give for `O=C(Cc1ccccc1)Nc1nc(=O)c2ccccc2s1` here?
A: Its Potency is inconclusive [inhibitor, partial curve, poor fit].

Q: For `O=C(/C=C1\NCC2c3ccccc3CCN2C1=O)c1ccccc1` (stereo not given), which Potency is on record?
A: Its Potency is inconclusive [inhibitor, full curve].

Q: With `Cc1ccc(CSCC(=O)N/N=C/c2ccc(OCC(=O)Nc3ccc(C)cc3)cc2)cc1` as the compound, how does the Potency read?
A: The Potency was inconclusive [inhibitor, single point].

Q: With `Cc1ccccc1C(=O)Nc1sc2c(c1C(=O)N1CCC(C)CC1)CCCC2` as the compound, how does the Potency read?
A: The Potency was inconclusive [inhibitor, single point].

Q: For `Cc1cc2nc(C)n(CCCNC(=O)Nc3ccc(F)cc3)c2cc1C`, which Potency is on record?
A: Its Potency is inconclusive [inhibitor, single point].

Q: Which Potency does the source give for `COC(=O)Cc1ccc(NC(=S)N2CCN(c3ccc(F)cc3)CC2)cc1` here?
A: Its Potency is active: 11.6 µM.

Q: With `CCOC(=O)c1c(S(=O)(=O)NCC(=O)N2CCN(c3ccc(OC)cc3)CC2)c(C)n(C)c1C` as the compound, how does the “activity change, negative = growth inhibition” value read?
A: Its value is inactive: -2.66%.

Q: Which Potency does the source give for `CCOC(=O)c1c(NC(=O)c2ccc(S(=O)(=O)N(C)C)cc2)sc2c1CCN(C)C2` here?
A: Its Potency is active: 23.1 µM.

Q: With `COc1ccc(-c2cc(=O)c3cc(F)ccc3[nH]2)cc1` as the compound, how does the Potency read?
A: The Potency was inconclusive [inhibitor, single point].

Q: Which Potency does the source give for `CCn1cc(CN2CCN(CCC(C)C)C(CCO)C2)c2ccccc21` (stereo not given) here?
A: Its Potency is inconclusive [inhibitor, single point].

Q: With `C=CCSc1nc(C)c(Cc2cccc3ccccc23)c(=O)[nH]1` as the compound, how does the Potency read?
A: Its Potency is inconclusive [inhibitor, partial curve, poor fit].

Q: With `CCCc1ncc(CN2CCC(C(=O)Nc3cccc(-c4cscn4)c3)CC2)cn1` as the compound, how does the Potency read?
A: Its Potency is inconclusive [inhibitor, single point].

Q: With `CCCCCCCCN1C(=O)[C@H](CC(=O)NCC2CCCCC2)C[C@@]2(C(=O)OCC)CCCC=C12` as the compound, how does the Potency read?
A: The Potency was active: 20.6 µM.

Q: Which Potency does the source give for `CCc1ccc(-c2cc(C)no2)cc1S(=O)(=O)NCCc1ccccc1` here?
A: Its Potency is inconclusive [inhibitor, single point].

Q: For `Cc1cccc(N2CCC(N3CCN(C4CCCCC4)C(CCO)C3)CC2)c1C` (stereo not given), which Potency is on record?
A: The Potency was inconclusive [inhibitor, single point].

Q: Which “activity change, negative = growth inhibition” value does the source give for `COc1ccc(NC(=O)Cn2c(=O)n(CC3CCCO3)c(=O)c3ccccc32)cc1` (stereo not given) here?
A: Its value is inactive: 1.85%.

Q: For `CCCCCCNc1ncnc2c1sc1nc(N3CCOCC3)c3c(c12)CCCC3`, which Potency is on record?
A: The Potency was inconclusive [inhibitor, single point].

Q: Which Potency does the source give for `COc1ccc(-c2cnc3c(NC(C)=O)cc(-c4cccc(NS(C)(=O)=O)c4)cn23)cc1OC` here?
A: The Potency was active: 20.6 µM.

Q: Which Potency does the source give for `CN1CCN(c2ccc(-c3cccc(NC(=O)COc4ccc(Cl)cc4Cl)c3)nn2)CC1` here?
A: The Potency was inconclusive [inhibitor, single point].

Q: For `CCc1ccnc(NC(=O)NS(=O)(=O)c2ccc(C)cc2)c1`, which “activity change, negative = growth inhibition” value is on record?
A: Its value is inactive: -1.7%.

Q: Which Potency does the source give for `FC(F)(F)c1ccc(CN2C[C@@H]3C(c4ccc(C(F)(F)F)cc4)C4(c5cccnc5)CC3(C4)[C@H]2c2ccccc2)cc1` (stereo not given in full) here?
A: Its Potency is active: 14.6 µM.

Q: Which Potency does the source give for `CCCCC1=CC2=C(c3ccco3)C(=O)C(C)(OC(=O)c3ccc(OC)cc3)C(=O)C2=CN1c1ccc(OC)cc1` (stereo not given) here?
A: The Potency was inconclusive [inhibitor, single point].

Q: With `CCCN(C(=O)c1nn(-c2ccc(C)cc2)c(=O)c2c1c1ccccc1n2C)c1ccccc1C` as the compound, how does the Potency read?
A: Its Potency is inconclusive [inhibitor, full curve, poor fit].

Q: With `Cc1oc2ccc(O)c(CN3CCN(Cc4ccccc4)CC3)c2c1C(=O)Nc1cccc(Cl)c1C` as the compound, how does the Potency read?
A: Its Potency is active: 16.4 µM.

Q: Which Potency does the source give for `CCOc1ccc(S(=O)(=O)n2c(C)nc3ccccc32)cc1` here?
A: The Potency was inconclusive [inhibitor, single point].

Q: Which Potency does the source give for `Cc1cccc(OCC(=O)Nc2ccncc2)c1C` here?
A: Its Potency is active: 11.6 µM.

Q: With `COCCn1c(N)c(N(Cc2ccccc2)C(=O)c2oc3ccccc3c2C)c(=O)[nH]c1=O` as the compound, how does the “activity change, negative = growth inhibition” value read?
A: The value was inactive: -7.9%.

Q: Which Potency does the source give for `COc1ccccc1N(Cc1cc(=O)[nH]c2ccccc12)C(=O)c1ccccc1` here?
A: The Potency was inconclusive [inhibitor, single point].

Q: For `CC(Cc1cccs1)NC(=S)Nc1ccccc1` (stereo not given), which activity change, negative = growth inhibition is on record?
A: The activity change, negative = growth inhibition was inconclusive: -31.8% [inhibitor].

Q: With `Cc1ccc2nc(C)c(C(=O)NN=C3CCCCCC3)n2c1` as the compound, how does the Potency read?
A: The Potency was inconclusive [inhibitor, partial curve].

Q: For `COCCn1c(SCC(=O)Nc2ccc(NC(C)=O)cc2)nc2ccccc2c1=O`, which “activity change, negative = growth inhibition” value is on record?
A: Its value is inactive: -21.4%.

Q: Which “activity change, negative = growth inhibition” value does the source give for `CC(=O)Nc1ccc(S(=O)(=O)Nc2nc3ccccc3nc2N2CCCCCC2)cc1` here?
A: The value was inactive: -5.18%.

Q: Which Potency does the source give for `O=C(Nc1ccc(Oc2ccccc2)cc1)C1CCN(S(=O)(=O)c2ccccc2)CC1` here?
A: Its Potency is inconclusive [inhibitor, single point].

Q: Which Potency does the source give for `NC(=S)NNc1c(F)c(F)c(F)c(F)c1F` here?
A: Its Potency is inconclusive [inhibitor, single point].

Q: With `C[C@H]1NC(=O)[C@@]2(C)[C@H](c3ccccc3)[C@H]3COc4ccccc4[C@@H]3N2C1=O` as the compound, how does the Potency read?
A: The Potency was inconclusive [inhibitor, single point].

Q: For `O=C(CSc1nc2c(cnn2-c2ccc(F)cc2)c(=O)[nH]1)N1CCCCC1`, which Potency is on record?
A: The Potency was inconclusive [inhibitor, single point].

Q: Which “activity change, negative = growth inhibition” value does the source give for `CS(=O)(=O)c1ccc(S(=O)(=O)N2CCN(C(=O)C(O)c3ccccc3)CC2)cc1` (stereo not given) here?
A: The value was inactive: -4.21%.

Q: Which activity change, negative = growth inhibition does the source give for `O=C(COC(=O)C1Cc2ccccc2CN1C(=O)c1ccccc1Cl)Nc1ccc(N2CCOCC2)cc1` (stereo not given) here?
A: Its activity change, negative = growth inhibition is inconclusive: -30.4% [inhibitor].

Q: Which Potency does the source give for `COc1cc(OC)c(NC(=O)C2CCN(S(=O)(=O)c3ccc4c(c3)CC(C)N4C(C)=O)CC2)cc1Cl` (stereo not given) here?
A: Its Potency is active: 20.6 µM.

Q: With `OC(COc1ccc(CNCCc2ccccc2F)cc1)CN1CCCCC1` (stereo not given) as the compound, how does the Potency read?
A: The Potency was inconclusive [inhibitor, single point].

Q: With `CCOC(=O)CCCNC(=O)CSc1nnc(-c2ccccc2)c(-c2ccccc2)n1` as the compound, how does the Potency read?
A: Its Potency is inconclusive [inhibitor, single point].

Q: With `Cc1cc(NC(=O)c2ccc(Br)c(S(=O)(=O)N3CCCC3)c2)no1` as the compound, how does the Potency read?
A: Its Potency is inconclusive [inhibitor, single point].

Q: With `COc1ccccc1/C=C/c1nc(C#N)c(NC(C)c2ccccc2)o1` (stereo not given) as the compound, how does the Potency read?
A: Its Potency is inconclusive [inhibitor, single point].

From PubChem BioAssay AID686979 (National Center for Advancing Translational Sciences (NCATS), 2013)
